Results from doi:10.1101/2025.03.18.643855.
These are yes or no findings as the source states them, for the method shown. Binding seen in cells or lysates may run through a third protein. Some results given as binding are weak or reduced against the parent protein; the word gives no strength.

By UniProt entry, the sequences of proteins in these tests, tags left out.
UniProt Q12888: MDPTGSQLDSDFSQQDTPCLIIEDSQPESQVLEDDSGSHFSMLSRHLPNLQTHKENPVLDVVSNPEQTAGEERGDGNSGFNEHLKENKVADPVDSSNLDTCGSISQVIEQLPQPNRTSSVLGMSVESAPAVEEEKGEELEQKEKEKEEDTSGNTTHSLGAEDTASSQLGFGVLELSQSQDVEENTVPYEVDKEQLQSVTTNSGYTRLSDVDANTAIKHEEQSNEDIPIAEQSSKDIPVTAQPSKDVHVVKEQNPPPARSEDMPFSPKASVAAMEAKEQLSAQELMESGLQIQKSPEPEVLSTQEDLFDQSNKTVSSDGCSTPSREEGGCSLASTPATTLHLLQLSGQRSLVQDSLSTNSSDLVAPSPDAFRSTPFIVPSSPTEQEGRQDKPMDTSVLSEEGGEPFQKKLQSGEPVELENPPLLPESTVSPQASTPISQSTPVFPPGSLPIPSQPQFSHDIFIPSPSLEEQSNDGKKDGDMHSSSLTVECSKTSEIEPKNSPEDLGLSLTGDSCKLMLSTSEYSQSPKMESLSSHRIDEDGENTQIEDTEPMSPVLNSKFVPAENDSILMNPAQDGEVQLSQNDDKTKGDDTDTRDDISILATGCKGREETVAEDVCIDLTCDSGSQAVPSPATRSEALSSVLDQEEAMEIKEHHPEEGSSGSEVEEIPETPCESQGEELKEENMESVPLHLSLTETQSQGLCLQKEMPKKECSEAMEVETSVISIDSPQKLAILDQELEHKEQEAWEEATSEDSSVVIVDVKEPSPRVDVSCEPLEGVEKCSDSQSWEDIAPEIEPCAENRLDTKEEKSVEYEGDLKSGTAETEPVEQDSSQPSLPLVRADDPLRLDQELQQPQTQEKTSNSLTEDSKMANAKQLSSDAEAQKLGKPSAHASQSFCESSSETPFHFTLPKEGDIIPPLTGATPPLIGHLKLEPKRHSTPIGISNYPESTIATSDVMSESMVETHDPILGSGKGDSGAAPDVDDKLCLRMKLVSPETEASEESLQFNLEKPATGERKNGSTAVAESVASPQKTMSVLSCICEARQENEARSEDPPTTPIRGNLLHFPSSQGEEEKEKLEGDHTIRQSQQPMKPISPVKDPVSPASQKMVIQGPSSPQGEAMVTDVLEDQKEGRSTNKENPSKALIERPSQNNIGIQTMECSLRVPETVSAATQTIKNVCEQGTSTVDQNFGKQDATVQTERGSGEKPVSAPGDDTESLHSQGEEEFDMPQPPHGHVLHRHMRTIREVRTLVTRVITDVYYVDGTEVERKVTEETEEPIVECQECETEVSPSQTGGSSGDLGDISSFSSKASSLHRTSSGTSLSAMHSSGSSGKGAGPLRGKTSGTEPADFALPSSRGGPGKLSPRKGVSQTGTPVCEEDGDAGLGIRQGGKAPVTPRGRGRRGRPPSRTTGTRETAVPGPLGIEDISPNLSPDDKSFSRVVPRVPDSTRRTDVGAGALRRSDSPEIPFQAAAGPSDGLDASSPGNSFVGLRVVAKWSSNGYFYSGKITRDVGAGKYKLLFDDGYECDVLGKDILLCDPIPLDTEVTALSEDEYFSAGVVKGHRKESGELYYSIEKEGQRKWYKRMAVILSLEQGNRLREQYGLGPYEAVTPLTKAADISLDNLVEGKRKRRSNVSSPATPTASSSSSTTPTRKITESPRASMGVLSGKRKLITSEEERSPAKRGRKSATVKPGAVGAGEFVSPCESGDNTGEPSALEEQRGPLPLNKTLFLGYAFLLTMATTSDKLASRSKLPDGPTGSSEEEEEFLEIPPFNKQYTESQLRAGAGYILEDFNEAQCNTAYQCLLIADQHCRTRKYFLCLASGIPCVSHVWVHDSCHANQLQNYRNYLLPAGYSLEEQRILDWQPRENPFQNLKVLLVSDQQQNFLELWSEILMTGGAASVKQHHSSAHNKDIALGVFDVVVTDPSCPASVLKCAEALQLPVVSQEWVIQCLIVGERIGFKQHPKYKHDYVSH

Molecular target: FLAG-53BP1 WT (human) (UniProt Q12888)
Test: co-IP; FLAG-53BP1 WT, ΔMFF or IEDI_AAAA transfected in HEK293T, MLN4924 3 h; immunoprecipitation and blot for GMCL1

- binding: binds
B1: endogenous GMCL1, HEK293T (protein, UniProt Q96IK5 1-515)
chain: MGSLSSRVLRQPRPALAQQAQGARAGGSARRPDTGDDAAGHGFCYCAGSHKRKRSSGSFCYCHPDSETDEDEEEGDEQQRLLNTPRRKKLKSTSKYIYQTLFLNGENSDIKICALGEEWSLHKIYLCQSGYFSSMFSGSWKESSMNIIELEIPDQNIDVEALQVAFGSLYRDDVLIKPSRVVAILAAACLLQLDGLIQQCGETMKETVNVKTVCGYYTSAGTYGLDSVKKKCLEWLLNNLMTHQNVELFKELSINVMKQLIGSSNLFVMQVEMDIYTALKKWMFLQLVPSWNGSLKQLLTETDVWFSKQRKDFEGMAFLETEQGKPFVSVFRHLRLQYIISDLASARIIEQDAVVPSEWLSSVYKQQWFAMLRAEQDSEVGPQEINKEELEGNSMRCGRKLAKDGEYCWRWTGFNFGFDLLVTYTNRYIIFKRNTLNQPCSGSVSLQPRRSIAFRLRLASFDSSGKLICSRTTGYQILTLEKDQEQVVMNLDSRLLIFPLYICCNFLYISPEKKN
